Reference: paper PMC4336329 (PLoS ONE, 2015)
Out of some 310,000 compounds screened, about 2,200 (0.71%) showed an effect of 50% or more. Effects have a minus sign here. The list shows a part of the results.

The compounds below were run against human ether-à-go-go-related gene (hERG) potassium channel (human, UniProt Q12809) (assay: primary screen, population patch clamp on CHO cells stably expressing hERG).
Chain of human ether-à-go-go-related gene (hERG) potassium channel (Q12809 whole entry, looked up): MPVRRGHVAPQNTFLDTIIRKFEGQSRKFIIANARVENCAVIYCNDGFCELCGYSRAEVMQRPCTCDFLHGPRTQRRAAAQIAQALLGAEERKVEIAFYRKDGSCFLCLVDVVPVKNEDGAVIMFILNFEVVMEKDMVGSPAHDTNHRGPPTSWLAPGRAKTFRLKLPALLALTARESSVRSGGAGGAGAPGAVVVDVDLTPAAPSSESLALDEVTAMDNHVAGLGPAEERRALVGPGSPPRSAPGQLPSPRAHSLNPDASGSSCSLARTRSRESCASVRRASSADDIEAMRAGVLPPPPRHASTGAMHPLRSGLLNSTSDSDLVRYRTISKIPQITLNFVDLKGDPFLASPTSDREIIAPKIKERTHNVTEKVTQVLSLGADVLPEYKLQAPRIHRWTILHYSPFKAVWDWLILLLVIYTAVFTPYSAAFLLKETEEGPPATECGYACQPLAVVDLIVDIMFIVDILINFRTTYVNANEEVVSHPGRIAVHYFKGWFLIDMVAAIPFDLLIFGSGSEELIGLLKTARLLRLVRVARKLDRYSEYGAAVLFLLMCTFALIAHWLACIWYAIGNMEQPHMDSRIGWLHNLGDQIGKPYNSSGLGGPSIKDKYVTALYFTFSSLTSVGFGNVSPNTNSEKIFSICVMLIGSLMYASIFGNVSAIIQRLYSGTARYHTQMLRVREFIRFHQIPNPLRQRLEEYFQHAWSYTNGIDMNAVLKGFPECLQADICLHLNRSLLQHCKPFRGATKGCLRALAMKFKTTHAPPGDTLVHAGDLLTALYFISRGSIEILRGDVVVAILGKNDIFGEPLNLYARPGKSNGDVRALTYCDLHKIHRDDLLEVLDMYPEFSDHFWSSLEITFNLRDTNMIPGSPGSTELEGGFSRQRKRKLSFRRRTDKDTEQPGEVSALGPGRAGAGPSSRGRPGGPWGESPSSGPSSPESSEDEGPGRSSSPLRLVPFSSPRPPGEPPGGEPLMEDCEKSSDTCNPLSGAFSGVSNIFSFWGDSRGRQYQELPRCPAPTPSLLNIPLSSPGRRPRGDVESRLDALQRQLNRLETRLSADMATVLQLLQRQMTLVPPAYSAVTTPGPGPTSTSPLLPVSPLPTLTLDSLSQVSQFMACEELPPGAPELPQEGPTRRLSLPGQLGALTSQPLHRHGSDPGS
CCCNC(=O)CS(=O)Cc1nc(-c2ccccc2C)oc1C (centres unmarked) was tested, and the “hERG current change (%, negative = inhibition) at 1uM” value was 8.51%.
In the case of Cc1ccc(S(=O)(=O)CCC(=O)OCc2ccccc2)cc1, the “hERG current change (%, negative = inhibition) at 1uM” value is reported as 13.3%.
With Cc1nn(C(C)C(=O)NCCc2ccco2)c(=O)c2nn(-c3ccccc3)c(C)c12 (centres unmarked) the “hERG current change (%, negative = inhibition) at 1uM” value was 10.2%.
In the case of CCc1ccc(OCC(O)CN2CCCC2)cc1.Cl (centres unmarked), the “hERG current change (%, negative = inhibition) at 1uM” value is reported as 3.86%.
With O=C(OCC(=O)N1CCCC1)c1cccs1 the “hERG current change (%, negative = inhibition) at 1uM” value was 11.7%.
In the case of Cc1ccccc1NC(=O)CCN1CCc2ccccc2C1, the “hERG current change (%, negative = inhibition) at 1uM” value is reported as 6.54%.
For O=C(CN1C(=O)c2cccc3cccc1c23)NCc1ccc2c(c1)OCO2, the “hERG current change (%, negative = inhibition) at 1uM” value was -8.16%.
With CCc1nc(C(N)=O)c2[nH]c(=O)n(-c3ccc(OC)cc3OC)c2n1 the “hERG current change (%, negative = inhibition) at 1uM” value was 16.3%.
With Cc1ccc(C(C[N+](=O)[O-])c2c(C)[nH]n(-c3ccccc3)c2=O)cc1 (centres unmarked) the “hERG current change (%, negative = inhibition) at 1uM” value was 2.55%.
In the case of O=C(Nc1ccc(-c2cnco2)cc1)c1ccccc1, the “hERG current change (%, negative = inhibition) at 1uM” value is reported as 11.3%.
In the case of O=C(Nc1ccc(Oc2ccc(NC(=O)C3CCCO3)cc2)cc1)C1CCCO1 (centres unmarked), the “hERG current change (%, negative = inhibition) at 1uM” value is reported as 18.2%.
For CC(C)(C)OC(=O)NN1CC(=O)N2Cc3[nH]c4ccccc4c3C[C@H]2C1=O, the “hERG current change (%, negative = inhibition) at 1uM” value was -0.719%.
For CCS(=O)(=O)n1nc(-c2ccc(Cl)cc2)nc1SCc1ccccc1, the “hERG current change (%, negative = inhibition) at 1uM” value was 5.88%.
With CCC(=O)N1c2ccc(S(=O)(=O)N3CCCCC3)cc2CC1C (centres unmarked) the “hERG current change (%, negative = inhibition) at 1uM” value was 17.7%.
With O=C(O)C(CO)N=Cc1c(O)c2ccccc2oc1=O (centres unmarked) the “hERG current change (%, negative = inhibition) at 1uM” value was 1.59%.
In the case of COc1ccc(Cc2nc(N)nc(N)n2)cc1, the “hERG current change (%, negative = inhibition) at 1uM” value is reported as 11%.
With CC(=O)c1ccc(N2CCN(S(=O)(=O)c3c(C(=O)N4CCCCC4)c(C)n(C)c3C)CC2)cc1 the “hERG current change (%, negative = inhibition) at 1uM” value was 6.66%.
In the case of COc1ccc2oc(C(=O)OCC(=O)NCc3ccccc3OC)c(C)c2c1, the “hERG current change (%, negative = inhibition) at 1uM” value is reported as 15.4%.
COc1cc(CNCc2cccs2)ccc1OCC(=O)NC(C)(C)C.Cl was tested, and the “hERG current change (%, negative = inhibition) at 1uM” value was 2.38%.
In the case of O=P(c1ccccc1)(c1ccccc1)C(c1ccccn1)P(=O)(c1ccccc1)c1ccccc1, the “hERG current change (%, negative = inhibition) at 1uM” value is reported as 8.21%.
CCc1ccccc1N1C(=O)CN(Cc2cc(OC)c(OC)c(OC)c2)C1=S was tested, and the “hERG current change (%, negative = inhibition) at 1uM” value was 10.3%.
In the case of Cn1c(SCC(=O)NC(=O)CN2CCCC2=O)nnc1-c1ccc(F)cc1, the “hERG current change (%, negative = inhibition) at 1uM” value is reported as 6.51%.
In the case of CC(C)NC(=O)CSc1nnc(-c2ccco2)n1N, the “hERG current change (%, negative = inhibition) at 1uM” value is reported as 10.6%.
In the case of CC(=O)N/C(=C/c1ccc2c(c1)OCO2)C(=O)N1CCOCC1, the “hERG current change (%, negative = inhibition) at 1uM” value is reported as 14.3%.
With CCOc1cccc(/C=N/NC(=O)C2CCCC2)c1O the “hERG current change (%, negative = inhibition) at 1uM” value was 12.3%.
With O=S(=O)(c1ccc(Oc2ccc(S(=O)(=O)N(CCO)CCO)cc2)cc1)N(CCO)CCO the “hERG current change (%, negative = inhibition) at 1uM” value was 10.5%.
For CC1(c2ccc(Cl)cc2)NC(=O)N(CC(=O)NCCC2=CCCCC2)C1=O (centres unmarked), the “hERG current change (%, negative = inhibition) at 1uM” value was 0.207%.
With C/C(=N\NC(=O)COc1cccc2ccccc12)c1cccs1 the “hERG current change (%, negative = inhibition) at 1uM” value was 4.19%.
For COCCN(CC(=O)NCC1CCCO1)C(=O)CCC(=O)Nc1cc(C)on1 (centres unmarked), the “hERG current change (%, negative = inhibition) at 1uM” value was 11.7%.
In the case of CC(Cc1ccccc1)NC(=O)C1(c2ccccc2)CCOCC1 (centres unmarked), the “hERG current change (%, negative = inhibition) at 1uM” value is reported as 2.19%.
In the case of Cc1ccnn1Cc1cc(C(=O)O)c2ccccc2n1, the “hERG current change (%, negative = inhibition) at 1uM” value is reported as 21.9%.
For COC(=O)c1c(NC(=O)CC2Sc3ccc(C(F)(F)F)cc3NC2=O)sc(C)c1C (centres unmarked), the “hERG current change (%, negative = inhibition) at 1uM” value was 0.367%.
With Cn1c(=O)c2c(ncn2CC(=O)N2CCN(c3ccccc3F)CC2)n(C)c1=O the “hERG current change (%, negative = inhibition) at 1uM” value was 2.35%.
For Cc1cc(-n2c(SCC(=O)NCc3cccs3)nc3n[nH]c(C)c3c2=N)ccc1Cl, the “hERG current change (%, negative = inhibition) at 1uM” value was 8.41%.
In the case of O=C(Nc1ccc(N2CCN(C(=O)c3cccs3)CC2)cc1)c1ccc(Br)o1, the “hERG current change (%, negative = inhibition) at 1uM” value is reported as -52.7%.
CSc1cccc(NC(=S)Nc2cc(C)ccc2C)c1 was tested, and the “hERG current change (%, negative = inhibition) at 1uM” value was 4.88%.
COc1ccc(N2C(=NC(=O)C3CC3)SC3CS(=O)(=O)CC32)cc1Cl (centres unmarked) was tested, and the “hERG current change (%, negative = inhibition) at 1uM” value was 7.85%.
Cc1ccccc1-n1c(O)c(C=Nc2ccc(N(C)C)cc2)c(=O)[nH]c1=O was tested, and the “hERG current change (%, negative = inhibition) at 1uM” value was -10.6%.
For CC(C)NC(=O)NS(=O)(=O)c1cnccc1NC1CC2CCC1C2 (centres unmarked), the “hERG current change (%, negative = inhibition) at 1uM” value was 9.06%.
For CNC(=O)/C(C#N)=C/c1ccc(-c2nc3ccccc3s2)o1, the “hERG current change (%, negative = inhibition) at 1uM” value was 11.2%.
In the case of Cc1nc2ccc(NC(=O)Cc3ccc4c(c3)OCCO4)cc2s1, the “hERG current change (%, negative = inhibition) at 1uM” value is reported as 17.4%.
In the case of O=C(COc1ccccc1O)c1cccs1, the “hERG current change (%, negative = inhibition) at 1uM” value is reported as 7.31%.
For Cc1ccc(NC(=O)CSCC(=O)Nc2ccc(S(=O)(=O)N3CCOCC3)cc2)cc1, the “hERG current change (%, negative = inhibition) at 1uM” value was 11.4%.
COCCN(CC(=O)NC1CCCCC1)C(=O)c1csnn1 was tested, and the “hERG current change (%, negative = inhibition) at 1uM” value was 8.94%.
